The campaign covered roughly 45,000 compounds. About 65 (0.1%) were called active. The call rests on the fitted dose curve; in most records, active means well fitted activation curve with a large enough effect; inconclusive means small, poorly fitted or top-dose-only effect; inactive means no such curve, though single readings can be large or run the other way. The list shows a part of the results.
molecular target: Galactocerebrosidase (Homo sapiens) (UniProt P54803); experiment: A Novel Cell-Based Assay to Identify Small Molecules for B -Galactocerebrosidase; details: 145M-Twi-hGALC-G270D cells (Twitcher mouse brain line with human GALC G270D), HMU-beta-Gal fluorescence, 48 h; series mostly up to 57.5 µM; activation: at the top concentration; further: 0% is about no effect; nearly all actives have a fitted effect of over 65% in size
Chain of UniProt P54803 (P54803 whole entry, looked up): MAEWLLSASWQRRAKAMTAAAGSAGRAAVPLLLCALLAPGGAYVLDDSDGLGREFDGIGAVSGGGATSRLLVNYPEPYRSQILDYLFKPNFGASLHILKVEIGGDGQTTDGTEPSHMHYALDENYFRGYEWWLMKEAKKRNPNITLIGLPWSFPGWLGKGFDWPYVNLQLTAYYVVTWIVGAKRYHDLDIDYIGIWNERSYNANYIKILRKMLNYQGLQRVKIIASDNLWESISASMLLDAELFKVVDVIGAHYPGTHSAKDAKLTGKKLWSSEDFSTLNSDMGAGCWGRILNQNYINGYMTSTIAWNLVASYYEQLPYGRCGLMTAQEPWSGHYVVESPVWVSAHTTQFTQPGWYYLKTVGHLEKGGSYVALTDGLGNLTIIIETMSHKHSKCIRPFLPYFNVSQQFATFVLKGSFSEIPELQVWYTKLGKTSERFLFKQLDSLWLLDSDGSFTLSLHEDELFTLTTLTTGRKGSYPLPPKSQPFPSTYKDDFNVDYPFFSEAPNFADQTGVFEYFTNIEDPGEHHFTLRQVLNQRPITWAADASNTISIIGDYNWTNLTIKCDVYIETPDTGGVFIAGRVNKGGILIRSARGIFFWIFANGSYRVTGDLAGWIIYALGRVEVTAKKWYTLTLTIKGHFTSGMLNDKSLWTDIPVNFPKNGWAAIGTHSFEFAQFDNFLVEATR
How it was run: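 Mutant human GALC (G270D), stably expressed in a Twitcher mouse brain cell line lacking endogenous GALC, is measured in live-treated cells via 6-hexadecanoylamino-4-methylumbelliferyl-β-galactoside hydrolysis (0.1 mM final, pH 5.2) with fluorescent detection.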

activation, inactive:
COc1ccc(Cn2c(C(=O)O)c(CNCc3ccc(OC)cc3OC)c3ccc(C)cc32)cc1 -5.81%
COc1ccc(NC(=O)CSCc2cc(=O)c3cc(C)ccc3[nH]2)cc1 -9.04%
Fc1ccc(CNCCCSc2nnnn2-c2ccccc2)cc1 -9.3%
COc1ccc(CCCc2nnc(SCC(=O)Nc3cc(F)ccc3C)o2)cc1 -21.5%
COc1cc(Cl)c(C)cc1NC(=O)CC1Oc2ccccc2NC1=O (stereo not drawn) -9.23%
CCOc1ccc(CNC(=O)c2ccc3c(Cl)c4c(nc3c2)CCCC4)cc1 -2.59%
CN(C(=O)CSc1nc2ccc(NC(=O)c3cccc(F)c3)cc2s1)c1ccccc1 -26.5%
COc1ccc(C(=O)Nc2ccc(-c3nc4ncccc4o3)cc2C)cc1Br -3.54%
CCn1c(=O)c2cc(C(=O)Nc3cccc(C(F)(F)F)c3)sc2c2ccccc21 -0.455%
COc1ccc(NC(=O)c2c(NCc3ccc(C)o3)sc3c2CCCCC3)c(OC)c1 -12.8%
CCNC(=O)CCCN1C(=O)CCn2nc(-c3cccn3C)cc21 -16.9%
CCC(C(=O)O)c1ccc(N2Cc3ccccc3C2=O)cc1 (stereo not drawn) -5.99%
O=C(Oc1ccccc1)c1ccccc1O -13.7%
Cc1ccc(CNC(=O)CSCc2ccccc2C)cc1 -0.733%
CCn1cc(C(=O)NCCc2ccc(Cl)cc2)c(=O)c2cc(S(=O)(=O)N(C)C3CCCCC3)ccc21 -8.87%
Cc1ccc2nc(NCc3ccccc3)c3nncn3c2c1 -10.1%
CCC(Sc1nc2nccnc2c(=O)n1Cc1ccccc1Cl)C(=O)NC1CCCCC1 (stereo not drawn) -4.79%
COc1ccc(-n2c(/C=C/c3cccc4ccccc34)nc3ccccc3c2=O)cc1OC -17.6%
O=S(=O)(c1ccc(C2CCCCC2)cc1)N1CCN(c2cc(Cl)ccc2Cl)CC1 -10.8%
COc1ccc(C(=O)c2ccccc2)c(O)c1 -16.8%
CCC(CC)C(=O)Nc1nnc(S(=O)(=O)N(C)c2cc(C)cc(C)c2)s1 -14%
Cc1cccc(N(CC(=O)NCCc2ccccc2)S(=O)(=O)c2ccccc2)c1C -19.9%
COc1ccc(CCNC(=O)c2cc3c(=O)n4cccc(C)c4nc3n2C)cc1 -0.584%
Cc1ccc(-c2csc(-c3c(N)c(C(=O)c4ccc5c(c4)OCO5)n4ccccc34)n2)cc1C -9.94%
COc1cc2c(cc1OC)C(COc1ccc3c(C)cc(=O)oc3c1)N(C(=O)Cc1ccc(F)cc1)CC2 (stereo not drawn) -11.4%
Cc1cc(C)cc(-n2ccn(CC(=O)NCCc3ccccc3)c(=O)c2=O)c1 -7.23%
COc1ccc(NC(=O)CC2Oc3ccc(C)cc3NC2=O)cc1Cl (stereo not drawn) -3.14%
COc1cccc(C(=O)N(Cc2cccc(F)c2)C2CCS(=O)(=O)C2)c1 (stereo not drawn) -15.2%
COc1ccc(Cn2ccnc2SCC(=O)Nc2ccc3c(c2)OCCO3)cc1 -8.56%
Cc1ccc2c(c1)N(CC(=O)Nc1ccccc1C(F)(F)F)C(=O)c1cccnc1O2 -0.345%
CCOC(=O)c1c(NC(C)=O)c2c3c(sc2n1Cc1c(C)cc(C)cc1C)CCCC3 -13.6%
CCOc1ccc(N(CC(=O)NCc2ccc(OC)cc2)S(=O)(=O)c2c(C)[nH]c(=O)[nH]c2=O)cc1 -15.5%
CCOC(=O)c1cc2c(=O)n3ccccc3nc2n(Cc2ccco2)c1=NC(=O)c1ccc(C(C)(C)C)cc1 -10.3%
COc1cccc(OC)c1C(=O)Nc1ccc(-c2nc3ncccc3o2)cc1 -16.9%
O=C(Nc1cccc(F)c1)c1ccc2oc(=O)n(Cc3ccccc3)c2c1 1.17%
Cc1c(Cl)cccc1NC(=O)c1oc2ccc(S(=O)(=O)N3CCCCCC3)cc2c1C -22%
CCOC(=O)c1cccnc1SCC(=O)N(CC)c1cccc(C)c1 -12.7%
CCOC(=O)c1ccc(NC(=O)c2c(NCc3sccc3C)sc3c2CCC(C)C3)cc1 (stereo not drawn) -12.1%
NC(=O)c1nc(Nc2ccccc2)sc1NC(=O)c1c(F)cccc1F -19%
CCOCCCNC(=O)c1c[nH]c2ccc(S(=O)(=O)N(C)c3ccc(Cl)cc3F)cc2c1=O -20%
CN1CCN(C(CNC(=O)C(=O)Nc2ccc(Cl)cc2)c2cccnc2)CC1 (stereo not drawn) -11.3%
Cc1ccc(C)c(N2CCN(C(=O)CCc3nnc4n(C)c(=O)c5ccccc5n34)CC2)c1 -12%
CC(C)Cn1nc(NC(=O)c2cccc(Cl)c2)c2cc3ccccc3nc21 -11%
CCc1ccccc1NC(=O)c1oc(=O)c2ccccc2c1-c1ccccc1 -13%
CC(C)(C)c1ccc(OCC(=O)Nc2ccc(C(=O)OC3CCCCC3)cc2)cc1 -11.4%
COc1ccc(F)cc1S(=O)(=O)NCC(c1ccco1)S(=O)(=O)c1cccs1 (stereo not drawn) -17.8%
Cc1ccc2nc3c(cc(C#N)c(=O)n3-c3nnc(SCc4ccc(F)cc4)s3)c(=O)n2c1 8.22%
Cc1cccc2c(=O)cc(CSc3ccccc3NC(=O)C(C)C)[nH]c12 -7.67%
COc1cccc(NC(=O)CSc2nc(=O)n(Cc3cccnc3)c3c2CCC3)c1 -8.62%
CCCCOc1cccc(C(=O)Nc2sc3c(c2C(=O)OCC)CCCC3)c1 15.8%
CCCCCN(CCCCC)C(=O)C(CCC(=O)O)NC(=O)c1ccc(Cl)c(Cl)c1 (stereo not drawn) -10.8%
CCCn1c2ccccc2c2cnn(CC(=O)NCC3CCN(Cc4ccc(C)cc4)CC3)c(=O)c21 9.8%
CCOc1ccc(-n2c(SCc3ccccc3)nc3c([nH]c4ccccc43)c2=O)cc1 -1.9%
CCOc1ccccc1NC(=O)Cn1c(=O)n(CC(=O)NCc2ccccc2Cl)c(=O)c2sccc21 -4.97%
COc1ccc(OCC(=O)Nc2ccc(-c3nc4cc(Cl)ccc4o3)cc2)cc1 -16.5%
COc1ccc(CCNC(=O)CCCCn2c(=O)c3ccccc3n(Cc3cc(C)ccc3C)c2=O)cc1OC -0.24%
CCOc1ccc(CNC(=O)c2ccc3c(c2)c(C)c(C)n3C)cc1 -3.91%
CCCN(CCC)C(=O)Cn1c(=O)n(-c2ccc(OC)cc2OC)c(=O)c2c3c(sc21)CCC3 -7.15%
Cc1ccc(Sc2ccc(N3CCCC(C(=O)Nc4ccc(F)c(Cl)c4)C3)nn2)cc1 (stereo not drawn) -7.66%
COc1cccc(CNC(=O)N2CCc3c(sc4c3CCCC4)C2c2ccc(F)cc2)c1 (stereo not drawn) -6.65%
Cc1nc2ncnn2c(C)c1CCC(=O)N1CCN(c2ccc(F)cc2)CC1 -11.9%
Cc1cc(Nc2cccc(C(F)(F)F)c2)nc2ccc(NC(=O)Cc3ccc(Cl)cc3)cc12 -10.5%
Cc1cccc(C(=O)NCCc2nc3ccccc3n2Cc2ccccc2Cl)c1 -9.71%
Cc1ccc(NC(=O)Nc2nnc(SCC(=O)N3CCCCC3)s2)cc1 -23.5%
CC(C)c1ccc2c(c1)NC(c1ccc(F)cc1)=NC(c1cccs1)=N2 -14.7%
Fc1ccc(-c2noc3ncnc(NCCc4ccc(Cl)cc4)c23)cc1 -31.1%
COc1cccc(N2CC(NC(=O)c3cc4ccccc4o3)CC2=O)c1 (stereo not drawn) -11.4%
COc1ccc(Nc2cc(C)c3cc(NC(=O)c4ccccc4Cl)ccc3n2)cc1 -8.29%
CC(C)c1noc(-c2ccccc2OCC(=O)Nc2ccc([N+](=O)[O-])cc2)n1 4.09%
Cc1cc(=O)n(Cc2cccc(Cl)c2)c2c1c(C)nn2C -19.7%
CCn1c2c(c(=O)n3ncc(C(=O)N4CCN(c5ccccc5)CC4)c13)CN(Cc1ccc(OC)cc1)CC2 -22.7%
COc1ccc(OC)c(C2C(C(=O)Nc3ccc(C)cc3C)=C(C)Nc3c(C(=O)Nc4ccc(F)cc4)cnn32)c1 (stereo not drawn) -1.81%
CCOC(=O)CCc1c(C)nc2c(-c3ccccc3)c(C)[nH]n2c1=O -4.48%
CCOc1ccccc1CNC(=O)CSc1n[nH]c(-c2ccccc2)n1 -5.9%
O=C(CSc1nnc(-c2ccncc2)n1-c1ccccc1)Nc1ccc(F)cc1 -2.72%
COc1ccc(Cl)cc1NC(=O)CSc1nc(=O)n(Cc2ccco2)c2c1CCC2 -7.29%
COc1ccc(OC)c(-c2noc(CSc3nnc(-c4ccccc4)n3-c3ccccc3)n2)c1 -8.42%
Cc1ccc(-n2ncc3c(Nc4ccc(Oc5ccccc5)cc4)ncnc32)c(C)c1 -18.2%
COc1ccc(N2CCN(S(=O)(=O)c3ccc(C4CCCCC4)cc3)CC2)cc1 -4.18%
Cc1ccc(OCC(=O)Nc2nnc(S(=O)(=O)N3CCc4ccccc43)s2)cc1 -12.9%
CCOC(=O)c1ccccc1NC(=O)c1cn(CC(C)C)c(=O)c2cc(OC)c(OC)cc12 -7.29%
CC(C)NCC(O)c1ccc(O)c(O)c1 (stereo not drawn) -17.2%
Nc1ccc(O)cc1 -15.5%
COc1ccc(CNC(=O)Cn2c(=O)c3cccn3c3cccnc32)cc1 -11%
Cc1cccn2c(=O)c(C(=O)N3CCN(c4ccccc4F)CC3)cnc12 -3.08%
COc1ccc(C(=O)Nc2nnc(SCc3cc(=O)c4cc(C)ccc4[nH]3)s2)cc1OC -8.38%
CCCCN(C)CCNC(=O)c1nn(-c2ccc(OC)c(Cl)c2)c(=O)c2c1c1ccccc1n2C -16.5%
Cc1nn(-c2ccccc2)c2sc(C(=O)Nc3ccc(Cl)cc3Cl)cc12 -15.9%
Cc1cc(C)c(S(=O)(=O)NCc2ccc3c(c2)CCN3C(=O)c2ccccc2)c(C)c1 -10.7%
COC(=O)C1=C(CS(=O)(=O)c2ccc(C)cc2C)NC(=O)NC1c1ccc(C)cc1 (stereo not drawn) 0.0583%
CCN(CC)c1ccc2cc(-c3nnc(Nc4ccc(C)cc4)s3)c(=O)oc2c1 -21.5%
Cc1cc2c(cc1S(=O)(=O)N(CCN(C)C)Cc1ccccc1)OCC(=O)N2 3.46%
COC(=O)c1ccc(NC(=O)c2c(NCc3cccc(F)c3)sc3c2CCCC3)cc1 -10.6%
CCC(Oc1ccccc1F)C(=O)Nc1cc(-c2ccccc2)no1 (stereo not drawn) -10.9%
COc1ccccc1C(c1c(O)cc(C)n(Cc2ccco2)c1=O)N1CCCCC1 (stereo not drawn) -18.8%
Cc1cccc(N2CCN(S(=O)(=O)c3cc(C(=O)Nc4ccc(Oc5ccccc5)cc4)ccc3F)CC2C)c1 (stereo not drawn) -16.3%
CCOC(=O)C1CCCN(S(=O)(=O)c2cc(-c3onc(C)c3C)ccc2OC)C1 (stereo not drawn) -10.6%
CCc1c(-c2ccccc2)nc2ccccc2c1C(=O)NC(C)c1ccccc1 (stereo not drawn) 4.92%
